According to PubChem BioAssay AID1948 (National Center for Advancing Translational Sciences (NCATS), 2009):
The campaign covered roughly 110,000 compounds. About 20 (0.02%) were called active. Inconclusive results, whose numbers are uncertain, are shown with a selection of clear calls. Calls come from the whole dose curve; as a rule, active = well fitted activation curve with a large enough effect; inconclusive = small, poorly fitted or top-dose-only effect; inactive = no such curve, though single readings can be large or run the other way. No potency is given beside an inconclusive call; the fits are too rough.

Assay: qHTS Assay for Compounds that Induce Erasure of Genomic Imprints;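 for activity change, positive = activation: 0% = negative control wells on the plate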
Conditions: mouse ES Peg3-LacZ reporter, beta-gal luminescence, 40 h; activity change, positive = activation: at 10.9 µM (top of the series) unless noted
How it was run: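 Each well holds 300 Peg3LacZ-Neo (maternal) female ES cells incubated 40 h at 37C, 5% CO2. LacZ is measured by BetaGlo luminescence, with AC50 and maximum efficacy derived from dose-response curves.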
Potency is the fitted concentration of half-maximal effect; tags give direction and shape of the fitted curve.

Compound	Potency	activity change, positive = activation
O=C(O)c1cccc(CN2CCCCC2)c1	inactive	–
O=C(NCc1ccccc1Cl)c1cnc2sc(N3CCCCC3)nn2c1=O	inactive	–
CCc1nc(N2CCCCC2C)c2oc3ccccc3c2n1 (configuration not stated)	inactive	–
CN(Cc1ccccc1)C(=O)CSc1nc2ccccc2n1Cc1ccccc1F	inactive	–
CCOc1ccc(-c2[nH]nc3c2C(c2cccnc2)C(C#N)=C(N)O3)cc1 (configuration not stated)	inconclusive [activator, single point]	–
CCn1c(=O)n(CC)c2cc(N3CCCCC3)c(NC(=O)Nc3ccccc3C(F)(F)F)cc21	inactive	–
Cc1cc(C)cc(O)c1	inactive	–
CCC(=O)N1CCCc2cc(S(=O)(=O)Nc3ccc(C)c(C)c3)ccc21	–	inconclusive: 130% [activator]
N#Cc1ccccc1NC(=O)C(=O)NCC(c1ccc2c(c1)OCO2)N1CCN(c2ccccc2)CC1 (configuration not stated)	–	inconclusive: 34.1% [activator]
COc1ccccc1NC(=O)c1sc2nc3n(c(=O)c2c1C)N=C(c1cccc(Br)c1)CS3	–	inconclusive: 97.1% [activator]
CN(C)C(=O)c1ccc(-c2cc(-n3ccnc3)ncn2)cc1	inconclusive [activator, single point]	–
CC(C)(CO[C@H]1C[C@H]2CC[C@@]1(C)C2(C)C)[N+](=O)[O-]	inactive	–
N#CC(C#SN)=C1CCCCC1	inconclusive [activator, single point]	–
CN1CCN(C(CNC(=O)c2c(F)cccc2F)c2ccc3c(c2)OCO3)CC1 (configuration not stated)	–	inconclusive: 42.5% [activator]
COc1ccc(-c2nc3cnc(N4CCOCC4)nc3n(-c3ccc(OC)cc3)c2=O)cc1	inconclusive [activator, partial curve]	–
Cc1occc1-c1nnc(SCC(=O)N2c3ccccc3CCc3ccccc32)n1C	inconclusive [activator, single point]	–
Cc1cccc(C(=O)N2CCc3cc(CNS(=O)(=O)c4cccs4)ccc32)c1	–	inconclusive: 56.3% [activator]
CCC(Sc1nnc2c3ccccc3n(C)c2n1)C(=O)Nc1nnc(C(C)C)s1 (configuration not stated)	inactive	–
Cn1c(=O)cc(SCC(=O)N2CCN(c3ccccc3)CC2)c2ccccc21	–	inconclusive: 50.9% [activator]
CCCCn1c(=O)nc2n(-c3ccc(F)cc3)c3ccccc3cc-2c1=O	inactive	–
O=C(SCc1cccc2ccccc12)c1ccc(Cl)cc1	inactive	–
COc1c(O)cc2c(c1O)C1OC(CO)C(O)[C@H](O)[C@H]1OC2=O (some centres not stated)	active: 7.94 µM	–
COC(=O)c1cc(OC)c(OC)cc1NC(=O)C1CCC(=O)N1S(=O)(=O)c1ccc(C)cc1 (configuration not stated)	inactive	–
COC(=O)c1[nH]c2c(c1C)C(=O)CC(c1ccccc1)C2 (configuration not stated)	inactive	–
Nc1c(C(=O)c2ccccc2)sc(Nc2ccc(Cl)c(Cl)c2)c1C(=O)Nc1ccccc1	–	inconclusive: 128% [activator]
O=C(NCc1ccc(F)cc1)C(=O)NCC(c1ccco1)S(=O)(=O)c1cccs1 (configuration not stated)	–	inconclusive: 30.5% [activator]

Compound	Potency	activity change, positive = activation
Nc1ccc(S(=O)(=O)NC2(C(F)(F)F)NC(=O)N(c3cccc(Cl)c3)C2=O)cc1 (configuration not stated)	–	inconclusive: 58.4% [activator]
COc1ccc(OC)c(NC(=O)CSC2=Nc3ccccc3C3=NC(CCC(=O)NCCc4ccccc4)C(=O)N23)c1 (configuration not stated)	–	inconclusive: 32.8% [activator]
CCN(CC(=O)Nc1ccc(S(N)(=O)=O)cc1)S(=O)(=O)c1cc(C)ccc1OC	inconclusive [activator, full curve, poor fit]	–
Cn1c(=O)c(=O)n(C)c2cc(S(=O)(=O)Nc3ccc(Cl)c(C(F)(F)F)c3)ccc21	–	inconclusive: 32.8% [activator]
O=C(NCCc1ccc(Cl)cc1)c1ccc2c(c1)N(Cc1cccc(Cl)c1)C(=O)c1ccccc1S2(=O)=O	–	inconclusive: 103% [activator]
CCC1CCCCN1C(=O)Cn1c(=O)n(CCCCCC(=O)NCc2ccccc2Cl)c(=O)c2sccc21 (configuration not stated)	–	inconclusive: 32.1% [activator]
Fc1ccc(-n2ncc3c(N4CCN(c5ccccc5F)CC4)ncnc32)cc1	–	inconclusive: 45.3% [activator]
CCOC(=O)CNc1nc(C(C)(C)C)nc2c1nnn2Cc1ccccc1Cl	inactive	–
CCc1ccc(-c2nc(CN3CCC(C(=O)N4CCN(c5ccccc5)CC4)CC3)c(C)o2)cc1	inactive	–
CCC(Sc1nc2cc3c(cc2c(=O)n1CCCC(=O)NCc1ccc2c(c1)OCO2)OCO3)C(=O)NCCCOC (configuration not stated)	–	inconclusive: 75.8% [activator]
CS(=O)(=O)Nc1cccc(-c2nc(-n3ccnc3)c3ccccc3n2)c1	inconclusive [activator, partial curve]	–
O=C(CN1C(=O)COc2ccccc21)N(Cc1cccnc1)Cc1cccc(F)c1	inactive	–
O=C(O)CCn1ccc2cc(S(=O)(=O)N3CCCCC3)ccc21	inactive	–
CC1=C(C(N)=O)C(c2ccc(Cl)cc2Cl)n2ncnc2N1 (configuration not stated)	inconclusive [activator, single point]	–
CCC(=O)N1CCc2cc(S(=O)(=O)NC(C(=O)NCCc3ccc(C)cc3)C(C)C)ccc21 (configuration not stated)	–	inconclusive: 35.8% [activator]
CCn1cc(C(=O)NCCc2ccc(C)cc2)c(=O)c2cc(S(=O)(=O)N3CCCCC3)ccc21	–	inconclusive: 47.6% [activator]
O=C(COC(=O)c1cccc(NC(=O)c2ccc(Br)cc2)c1)c1ccc(Br)cc1	–	inconclusive: 31.9% [activator]
Cc1nn2c(=O)cc(COC(=O)c3cccc(NC(=O)c4ccc(C(C)(C)C)cc4)c3)nc2s1	inactive	–
O=C(CCC1N=C2c3ccccc3N=C(SCc3ccc(Cl)cc3)N2C1=O)NCc1ccco1 (configuration not stated)	inactive	–
CCOc1ccc2nc(N3CCCC(C(=O)Nc4cccc(Cl)c4C)C3)sc2c1 (configuration not stated)	–	inconclusive: 34.1% [activator]
CCc1cc2c(cc3c(=O)n(CC(=O)N4CCCCC4)ncn32)s1	–	inconclusive: 40.3% [activator]
Cc1ccc(NC(=O)C2CCCN2S(=O)(=O)c2ccc(F)cc2)c(C)c1 (configuration not stated)	inconclusive [activator, single point]	–
CCOc1ccc(OCC(=O)Nc2nnc3n2CCS3)cc1	–	inconclusive: 35.1% [activator]
CCOC(=O)c1sc2ncn(CC(=O)Nc3ccc(C)cc3Br)c(=O)c2c1C	–	inconclusive: 41.7% [activator]
O=S(=O)(c1ccc2c(c1)CCN2)N1CCCCCC1	inactive	–
O=C(Nc1ccc(-c2cn3ccsc3n2)cc1)C1CCCC1	inactive	–

Compound	Potency	activity change, positive = activation
c1ccc2[nH]c(NC3=NCCC3)nc2c1	inconclusive [activator, full curve]	–
COc1ccc2[nH]cc(CCNc3ncnc4ccc(-c5cccc(C#N)c5)cc34)c2c1	inactive	–
O=C(Nc1nc(-c2ccccc2)ns1)c1cccs1	inactive	–
CC(C)Cn1c(=O)c2sccc2n2c(CCCC(=O)N3CCN(c4ccc(F)cc4)CC3)nnc12	–	inconclusive: 32.4% [activator]
CCOC(=O)C1CCCN(C(=O)Cn2ncc3c(C)n(Cc4ccccc4Cl)c(C)c3c2=O)C1 (configuration not stated)	inactive	–
Cc1ccc(-c2nnn(CC(=O)N(Cc3cccs3)C(C(=O)NC(C)(C)C)c3ccco3)n2)o1 (configuration not stated)	inactive	–
O=S(=O)(O)c1ccc(NN(c2c(O)ccc3ccccc23)S(=O)(=O)O)cc1	inactive	–
COc1cc(OC)c(-c2nn3c(-c4ccco4)nnc3s2)cc1OC	inactive	–
Cc1ccc2c(c1)-c1c(cnn1CC(=O)N1CCN(c3ccccc3F)CC1)CO2	inactive	–
CCCn1nnc(NC(=O)c2ccccc2Br)n1	inactive	–
CC(=O)c1cccc(NC(=O)C(CC(C)C)NS(=O)(=O)c2ccc3c(c2)CCN3C(C)=O)c1 (configuration not stated)	–	inconclusive: 55.1% [activator]
O=C(Nc1cccc(C(F)(F)F)c1)N1CC2CCCN2c2ccccc21 (configuration not stated)	inactive	–
Nc1ccc(N=Nc2ccccc2)c(N)n1	inactive	–
COC(=O)c1ccccc1NC(=O)Cn1nnc2sc(-c3ccccc3)cc2c1=O	–	inconclusive: 37.3% [activator]
CCOc1ccc(S(=O)(=O)N2CCN(c3c(C)cccc3C)CC2)c2ccccc12	inactive	–
Cc1cc2oc3c(c(=O)c2cc1C)C(c1ccc(C(C)C)cc1)N(CCCN1CCOCC1)C3=O (configuration not stated)	inconclusive [activator, single point]	–
CCOc1ccc(N2C(=O)N(Cc3ccc(C)cc3C)c3ccccc3S2(=O)=O)cc1	–	inconclusive: 43.4% [activator]
CN1CCN(c2ncncc2-c2ccoc2)CC1	inconclusive [activator, single point]	–
Cc1cc(-c2nc3ncccc3o2)ccc1NC(=O)c1ccc(Br)cc1	–	inconclusive: 33% [activator]
Cc1nc2sc(C(c3ccc(C(C)C)cc3)N3CCN(CCO)CC3)c(O)n2n1 (configuration not stated)	inconclusive [activator, single point]	–
O=C(CN1C(=O)CCSc2ccccc21)Nc1ccccc1F	–	inconclusive: 35.2% [activator]
COc1ccc2[nH]cc(CCNc3ccnc(-c4ccccc4Cl)n3)c2c1	inconclusive [activator, single point]	–
CC(=O)N1c2ccc(S(=O)(=O)N3CCCCCC3)cc2CC1C(=O)NCc1ccc(Cl)cc1 (configuration not stated)	–	inconclusive: 32.9% [activator]
CCc1ccccc1NC(=O)c1ccc2nc(CCc3ccccc3)oc2c1	–	inconclusive: 31.1% [activator]
CN(C)S(=O)(=O)c1ccc(Nc2ccc(O)c3c2C(=O)c2c([N+](=O)[O-])ccc(O)c2C3=O)cc1	inconclusive [activator, single point]	–
